The source of these data is US20220033784A1 (Pfizer, published 2022).

Read-outs that look alike come from different tables or passages of the source. Bounds are passed on as bounds.

Experiment [1] concerns the target T1, human intermediate-affinity IL-2 receptor complex, IL-2 CD122/CD132 (β/γ), on cells (human, UniProt P14784 27-551; P31785 23-369).
T1 sequence (looked up) 1: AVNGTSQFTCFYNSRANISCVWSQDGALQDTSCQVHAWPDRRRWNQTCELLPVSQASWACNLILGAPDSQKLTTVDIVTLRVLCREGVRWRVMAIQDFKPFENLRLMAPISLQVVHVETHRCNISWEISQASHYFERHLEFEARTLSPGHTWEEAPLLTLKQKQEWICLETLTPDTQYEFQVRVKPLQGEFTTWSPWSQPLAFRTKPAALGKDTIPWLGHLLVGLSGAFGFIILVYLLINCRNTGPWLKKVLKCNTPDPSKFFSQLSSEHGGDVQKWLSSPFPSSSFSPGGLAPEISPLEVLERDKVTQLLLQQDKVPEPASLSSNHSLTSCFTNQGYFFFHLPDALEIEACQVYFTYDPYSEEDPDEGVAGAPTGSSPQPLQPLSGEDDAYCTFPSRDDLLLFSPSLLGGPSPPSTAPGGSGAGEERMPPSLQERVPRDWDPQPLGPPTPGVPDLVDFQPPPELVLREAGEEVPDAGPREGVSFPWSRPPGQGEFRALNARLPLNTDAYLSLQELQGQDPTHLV
T1 sequence (looked up) 2: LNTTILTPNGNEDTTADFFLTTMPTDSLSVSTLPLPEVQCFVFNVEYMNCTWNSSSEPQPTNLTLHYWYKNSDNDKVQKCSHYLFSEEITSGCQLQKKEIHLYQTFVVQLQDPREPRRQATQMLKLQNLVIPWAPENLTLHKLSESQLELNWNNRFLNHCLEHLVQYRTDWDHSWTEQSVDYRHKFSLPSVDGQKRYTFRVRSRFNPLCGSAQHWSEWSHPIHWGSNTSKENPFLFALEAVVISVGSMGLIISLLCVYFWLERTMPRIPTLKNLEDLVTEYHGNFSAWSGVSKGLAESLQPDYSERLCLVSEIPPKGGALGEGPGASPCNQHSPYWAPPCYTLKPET
The experiment in a line: cell-based or functional assay.

The target in experiment [2] is T2, human high-affinity IL-2 receptor complex, IL-2 CD25/CD122/CD132 (α/β/γ), on cells (human, UniProt P01589 22-272; P14784 27-551; P31785 23-369).
T2 sequence (looked up) 1: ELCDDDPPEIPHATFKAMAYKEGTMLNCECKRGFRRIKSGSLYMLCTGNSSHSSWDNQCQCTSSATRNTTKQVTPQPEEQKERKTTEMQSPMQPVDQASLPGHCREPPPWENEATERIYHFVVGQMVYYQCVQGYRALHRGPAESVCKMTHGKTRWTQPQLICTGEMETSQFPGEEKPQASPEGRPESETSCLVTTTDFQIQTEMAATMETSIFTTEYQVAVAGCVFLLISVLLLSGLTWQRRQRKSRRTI
T2 sequence (looked up) 2: T1 sequence (looked up) 1
T2 sequence (looked up) 3: T1 sequence (looked up) 2
The experiment in a line: cell-based or functional assay.

For experiment [3], the target named is T3, human IL-2 receptor alpha (IL-2Rα, CD25), purified soluble (human, UniProt P01589 22-240).
T3 construct: also called hIL2Rα (CD25); human IL-2Rα
T3 sequence (looked up): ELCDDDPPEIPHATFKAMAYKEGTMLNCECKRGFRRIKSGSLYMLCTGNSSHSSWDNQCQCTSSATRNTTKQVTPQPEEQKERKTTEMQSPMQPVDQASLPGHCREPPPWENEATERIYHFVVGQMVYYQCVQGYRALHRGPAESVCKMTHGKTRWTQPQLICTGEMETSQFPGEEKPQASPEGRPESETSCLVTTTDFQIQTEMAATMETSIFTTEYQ
The experiment in a line: SPR (Biacore 8K, 25 C), CD25 amine-coupled on CM5 chip, Fc-IL2 as analyte, 1:1 Langmuir fit. (Surface plasmon resonance follows binding to a sensor surface in real time, without labels.)

The target in experiment [4] is T4, human IL-2 receptor beta (IL-2Rβ, CD122), purified soluble (human, UniProt P14784 27-240).
T4 construct: also called hILR2β (CD122); human IL-2Rβ
T4 sequence (looked up): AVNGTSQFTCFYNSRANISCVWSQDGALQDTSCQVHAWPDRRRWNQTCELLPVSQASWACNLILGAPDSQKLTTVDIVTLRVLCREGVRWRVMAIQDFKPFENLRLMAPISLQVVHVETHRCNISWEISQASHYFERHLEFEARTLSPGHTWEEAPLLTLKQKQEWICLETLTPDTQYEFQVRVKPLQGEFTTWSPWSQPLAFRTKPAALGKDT
Description: SPR (Biacore 8K, 25 C), CD122 amine-coupled on CM5 chip, Fc-IL2 as analyte, 1:1 Langmuir fit.

The target in experiment [5] is T1, human intermediate-affinity IL-2 …. The experiment in a line: cell-based or functional assay. The source holds these as a separate data set.
Experiment [6] shares this target. The experiment in a line: cell-based or functional assay. The source holds these as a separate data set.
Experiment [7] addresses T2, human high-affinity IL-2 receptor …. The experiment in a line: cell-based or functional assay. This is another data set of the same source.
Experiment [8] addresses T1, human intermediate-affinity IL-2 …. The experiment in a line: cell-based or functional assay. This is another data set of the same source.

B1: Fc-IL2 (wild-type) (Fc fusion)
chain: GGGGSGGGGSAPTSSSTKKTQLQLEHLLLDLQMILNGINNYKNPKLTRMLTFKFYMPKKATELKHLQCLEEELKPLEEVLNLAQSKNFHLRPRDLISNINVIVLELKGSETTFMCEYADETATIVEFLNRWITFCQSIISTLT
Turning to B1, the “EC50, pSTAT5 induction in HH T cells (ELISA)” value in experiment [1] was found to be 16.9 nM. In addition, the “EC50, pSTAT5 induction in iTreg cells (ELISA)” value in experiment [2] is less than 0.2 pM. In experiment [3], this molecule showed a koff of 0.0859 s⁻¹ and a kon of 2.27e+06 M⁻¹ s⁻¹. Besides, in experiment [4], the Kd stood at 2120 nM, the koff turned out to be 0.279 s⁻¹ and the kon was found to be 131000 M⁻¹ s⁻¹. The “EC50 (read off the curve), pSTAT5 MFI in NK cells of hPBMC” value in experiment [5] was roughly 4 nM. In experiment [6], the “EC50, pSTAT5 in CD8 T cells of hPBMCs (flow cytometry)” value was found to be 15.7 nM and the “EC50, pSTAT5 in NK cells of hPBMCs (flow cytometry)” value came to 2.52 nM. For the same molecule, the “EC50, pSTAT5 in Treg cells of hPBMCs (flow cytometry)” value in experiment [7] is 10 pM. In addition, the “EC50 (read off the curve), pSTAT5 MFI in NK cells of hPBMC” value in experiment [8] was roughly 4 nM.

As usually defined, the koff is the rate constant with which the complex falls apart. High values mean fast dissociation, low ones slow dissociation. A word on the kon: it is the rate constant with which the complex forms. As usually defined, the Kd is the constant that tells how readily two partners part at equilibrium. Read a high Kd as lower affinity.
